Measurements as given in PubChem BioAssay AID1745853 (National Center for Advancing Translational Sciences (NCATS), 2022).
“And” between values parts separate entries of the source, which are not always exact repeats. Equal entries are not always repeated. Some of the results follow. These are further read-outs of the screen, such as a control signal, another cell line or another target. No call is given for them.

Columns and labels:
Experiment in all cases: Primary Screen for Target Class Profiling of Small Molecule Inhibitors of Methyltransferases
[1] = molecular target: Glycine N-methyltransferase (Homo sapiens) (UniProt Q14749); conditions: purified enzyme, MTase-Glo SAH luminescence; measured here: GNMT inhibition; at 40 µM; stronger effect = lower value
Procedure, shortened: (§1)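 Each enzyme was assayed with SAM and its substrate. SAH formation detected by MTase-Glo luminescence; single-point 40 uM screen[…].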

[2] = molecular target: Guanidinoacetate N-methyltransferase (Homo sapiens) (UniProt Q14353); conditions: purified enzyme, MTase-Glo SAH luminescence; measured here: GAMT inhibition; at 40 µM; stronger effect = lower value
Procedure, shortened: as §1

[3] = molecular target: Histamine N-methyltransferase (Homo sapiens) (UniProt P50135); conditions: purified enzyme, MTase-Glo SAH luminescence; measured here: HNMT inhibition; at 40 µM; stronger effect = lower value
Procedure, shortened: as §1

[4] = molecular target: Nicotinamide N-methyltransferase (Homo sapiens) (UniProt P40261); conditions: purified enzyme, MTase-Glo SAH luminescence; measured here: NNMT inhibition; at 40 µM; stronger effect = lower value
Procedure, shortened: as §1

[5] = molecular target: Phenylethanolamine N-methyltransferase (Homo sapiens) (UniProt P11086); conditions: purified enzyme, MTase-Glo SAH luminescence; measured here: PNMT inhibition; at 40 µM; stronger effect = lower value
Procedure, shortened: as §1
% is scaled to controls: 0 for no effect and ±100 for the full control effect.

| SMILES | activity change, negative = inhibition [1] [%] | activity change, negative = inhibition [2] | activity change, negative = inhibition [3] [%] | activity change, negative = inhibition [4] | activity change, negative = inhibition [5] |
| --- | --- | --- | --- | --- | --- |
| CCc1cccc(CC)c1-n1c(C=C(C)C)c(C(=O)N2CCNCC2)cc(-c2nc(-c3ccc(C(F)(F)F)cc3)cs2)c1=O | -3.45 | -4.96% | 2.88 | -13.8% | 0.8% |
| CCCn1c(=O)c2ccc(C(=O)NC(C)C)cc2n2c(=O)n(CC(=O)Nc3ccccc3C)nc12 | 3.23 | 0.986% | -1.92 | -3.32% | -5.92% |
| CCCN1C(=O)c2c(C(=O)NCc3ccc(OC(C)C)cc3)ncn2CC1(C)C(=O)NCCC(C)C (stereo not drawn) | -1.08 | 0% | 4.34 | 2.16% | 6.89% |
| CC(=O)NC1CCN(C(=O)Cc2c(C)[nH]c3c(C)ccc(C)c23)C1 (stereo not drawn) | -10.4 | -1.17% | 0.814 | -4.36% | -5.64% |
| CC(=O)O[C@@H]1c2c3c(cc(O)c2C(=O)O[C@@H]1C)O[C@@]1(C)[C@@H](O)C[C@H]2C(C)(C)C(=O)C=C[C@]2(C)[C@@H]1C3 | -4.83 | -11.7% | 0.244 | -23.6% | -6.58% |
| O=C(NC1CCCCC1)c1cc(-c2ccc(F)cc2)c2nncn2n1 | -6.78 | -13% | -5.06 | -11% | -10.8% |
| O=C(CC1=CCCCC1)NC1CCc2n[nH]c(=O)n2CC1 (stereo not drawn) | -5.67 | -8.32% | -5.07 | -7.58% | -5.59% |
| O=C(O)c1cc2cc(Cc3cccnc3)ccc2o1 | -7.05 | 10.9% | 3.19 | -4.51% | 7.99% |
| COc1ccc2nc(C[C@@H]3C[C@@H](C(C)C)[C@H](CNC(=O)NC4CCCCC4)C=C3C)[nH]c2c1 | -5.92 | -5.15% | -5.56 | -12.5% | 1.1% |
| CCOC(=O)c1cnc2c(cnn2CC)c1NN=C(C)C | -24.8 | 11.2% | 0.813 | -12.1% | 2.88% |
| Cc1ccc(Cn2nc3n(Cc4ccccc4)c(=O)c4ccc(C(=O)NC5CCCC5)cc4n3c2=O)cc1 | -1.76 | -2.97% | 4.88 | -1.62% | 1.06% |
| CN1CC2(CCN(Cc3ccc(-c4ccc(Cl)cc4)o3)C2)OC1=O (stereo not drawn) | -19.3 | -1.69% | -1.89 | -6.91% | -11.3% |
| CC(=O)N1CCC(N2C[C@@H]3OCC(=O)N(Cc4ccccn4)[C@@H]3C2)CC1 | -4.52 | -8.84% | -4.13 | -14.8% | 6.52% |
| COc1cccc(CCc2ccccc2C(=O)N2CC[C@H](CO)[C@@H](O)C2)c1 | -4.49 | -5.4% | -1.27 | -9.95% | -8.36% |
| O=C(c1cc(Cc2n[nH]c(=O)c3ccccc23)ccc1F)N1CCCNCC1 | 0.82 | 3.48% | 0.174 | -18.7% | -4.41% |
| Cc1cc2c(cc3n2CC(C)(C(=O)NC2CCCCCC2)N(CCCOC(C)C)C3=O)o1 (stereo not drawn) | 2.62 | 0% | 7.63 | -2.54% | 4.26% |
| Cc1ccc(S(=O)(=O)c2nnn3c2nc(NCc2ccc4c(c2)OCO4)c2ccccc23)cc1C | 2.08 | 0% | 7.47 | 13.3% | 0.73% |
| CCOC(=O)[C@H](CCc1ccccc1)N[C@@H](C)C(=O)N1C(=O)N(C)C[C@H]1C(=O)O | 5.96 | 2.45% and 1.24% | 11.7 | -4.97% and -12.7% | 5.55% and 3.24% |
| COc1ccc(CCNc2nc3c(S(=O)(=O)c4ccccc4)nnn3c3ccc(Cl)cc23)cc1OC | -25.6 | 0% | 8.7 | 1.01% | 0.186% |

| SMILES | activity change, negative = inhibition [1] [%] | activity change, negative = inhibition [2] | activity change, negative = inhibition [3] [%] | activity change, negative = inhibition [4] | activity change, negative = inhibition [5] |
| --- | --- | --- | --- | --- | --- |
| COc1ccc(Cn2c3c(c(=O)n2Cc2ccccc2)CCN(C(=O)CCc2cccnc2)C3)cc1 | -3.65 | 0.932% | 1.38 | -4.84% | 2.25% |
| CC1(C(=O)NC2CCCCCC2)Cn2c(c(-n3cccc3)c3ccccc32)C(=O)N1Cc1ccccn1 (stereo not drawn) | 2.02 | 0% | 7.12 | -29.5% | 5.38% |
| CC(C)c1nc(N(C)S(C)(=O)=O)nc(-c2ccc(F)cc2)c1/C=C/C(O)CC(O)CC(=O)O (stereo not drawn) |  | -1.21% |  | -14.1% | 6.32% |
| CCOc1cc(C)c(CN2CCCC(O)(CN(C)C)C2)cc1C(C)C (stereo not drawn) | -1.93 | -0.737% | -4.26 | -11.5% | -2.79% |
| Cn1cccc1CN[C@H]1[C@H](O)[C@@H](N2CCCC2)[C@@H]2OC[C@H]1O2 | -4.79 | -1.81% | 1.27 | -2.51% | -5.2% |
| CCC(C)NC(=O)CSc1nnc2n(Cc3ccc(C)cc3)c(=O)c3ccccc3n12 (stereo not drawn) | -0.873 | 0% | 7.26 | -4.92% | 0.567% |
| CC(C)(C)C1CN(Cc2cccs2)C(=O)c2cccnc2O1 (stereo not drawn) | -3.54 | 5.27% | 2.88 | -6.25% | 13.4% |
| C=C1C(=O)O[C@@H]2C[C@H](C)[C@@H]3CC(=O)[C@H](O)[C@@]3(C)C[C@H]12 | 2.17 | -3.67% | 7.83 | -10.9% | -6.6% |
| CC1(C(=O)NCc2ccc(Cl)cc2)Cn2c(ccc2-c2ccco2)C(=O)N1Cc1ccccc1 (stereo not drawn) | -4.45 | 2.34% | 0.823 | -10.2% | -3.7% |
| S=c1[nH]c(-c2ccccc2)cn1-c1ccccc1 | -39 | 6.87% | -0.944 | -6.68% | 6.04% |
| Cc1cccc(NS(=O)(=O)c2ccc3[nH]c(=O)[nH]c3c2)c1C | -8.66 | 5.57% | 0.588 | 3.65% | -12% |
| O=C(O)c1ccc(-c2nnc3ccc(NC(=O)C4CCC4)cn23)cc1 | -14.2 | -0.962% | -3.28 | -7.42% | -8.16% |
| CCCN1C(=O)c2cc(-c3ccc(OC)cc3)nn2CC1(C)C(=O)NC1CCCCC1 (stereo not drawn) | 2.09 | -2.09% | 2.35 | -1.34% | -3.28% |
| COc1ccc(C(=O)N[C@H]2COC[C@H]2Cc2cc(C)no2)c(OC)n1 | -6.04 | -4.54% | -0.891 | -10.3% | 2.2% |
| Cc1ccc(CN2C(=O)c3ccc(-c4ccco4)n3CC2(C)C(=O)NC2CCCC2)cc1 (stereo not drawn) | -8.29 | 3.63% | 3.14 | -8.02% | -2.29% |
| CS(=O)(=O)c1ccc(-c2nnc(/C=C/c3nnc(-c4ccc(C#N)cc4)o3)n2-c2ccccc2Cl)nc1 | -5.84 | -2.78% | 6.92 | -24.2% | -4.72% |
| COc1ccc(-c2nnc3n(Cc4ccc(C)cc4)c(=O)c4ccccc4n23)c(OC)c1 | -5.95 | 1.43% | 2.06 | -8.39% | -1.58% |
| O=C(NCCc1ccccc1)c1ccc2c(=O)nc3c(-c4ccc(F)cc4)n[nH]n3c2c1 | -3.69 | 0.658% | -4.83 | -2.78% | -6.52% |
| CC(=O)Nc1nc(C)c(-c2nc(N3CCCC(O)C3)no2)s1 (stereo not drawn) | -34.3 | -6.97% | -33.3 | -17.7% | -19.1% |

| SMILES | activity change, negative = inhibition [1] [%] | activity change, negative = inhibition [2] | activity change, negative = inhibition [3] [%] | activity change, negative = inhibition [4] | activity change, negative = inhibition [5] |
| --- | --- | --- | --- | --- | --- |
| NS(=O)(=O)c1ccc(CCNc2nc3c(-c4cccc(Br)c4)nnn3c3ccccc23)cc1 | -8.1 | 0% | 5.78 | -11.7% | -12% |
| O=C(O)[C@H](CC(=O)N1C[C@H]2CCCC[C@H]2C1)Cc1ccccc1 | -3.05 | 2.39% | -2.96 | -14.5% | -6.18% |
| CC1CCN(S(=O)(=O)c2ccc3c(ccn3CC(=O)NCc3ccc(Cl)cc3)c2)CC1 | -1.14 | 2.39% | -1.26 | 2.01% | -0.451% |
| COc1ccc(OC)c(S(=O)(=O)N2CCC3(CC2)C(OC)C(=O)N3CC2CC2)c1 (stereo not drawn) | 1.16 | 2.88% | 11.6 | 6.93% | 7.38% |
| COc1ccc(Cc2nc3nccc(-c4cc5ccccc5o4)n3n2)cc1 | -6.88 | 2.16% | 0.081 | -2.29% | 12.5% |
| CC(O)CCC1C(CO[C@@H]2O[C@H](CO)[C@@H](O)[C@H](O)[C@H]2O)CC(O)CC1(C)C (stereo partly drawn) | -0.213 | 2.55% | 4.26 | -8.21% | -3.21% |
| COc1cc2ncnc(-n3nc(-c4ccccn4)nc3N)c2cc1OC | -6.32 | -1.27% | 2.19 | -11.2% | -4.1% |
| CCCCNC(=O)CCn1ccc2cc(S(=O)(=O)N3CCCCC3)ccc21 | 6.19 | 1.81% | 2.66 | 5.07% | 2.83% |
| COCCn1c(C)cnc1CC1CCN(C(=O)C2CC2)CC1 | -0.424 | -5.08% | -0.939 | -1.48% | 0.823% |
| CC(C)CNC(=O)c1ccc2c(=O)n(Cc3ccccc3)c3n[nH]c(=O)n3c2c1 | -8.03 | -2.93% | -6.59 | -22.5% | -17.3% |
| CCCn1c(=O)c2ccc(C(=O)NC3CCCC3)cc2n2c(SCC(N)=O)nnc12 | 6.63 | 0% | 9.32 | 1.04% | 2.36% |
| CCC/C=C/C(=O)O[C@H]1CC(C)(C)CC2[C@@]13[C@H](O)C[C@]1(C)[C@@]2(CCC2[C@@]4(C)CC[C@H](O[C@@H]5O[C@H](C(=O)O)[C@@H](O)[C@H](O[C@@H]6O[C@H](CO)[C@H](O)[C@H](O)[C@H]6O[C@@H]6O[C@@H](C)[C@H](O)[C@@H](O)[C@H]6O[C@@H]6OC[C@](O)(CO)[C@H]6O)[C@H]5O[C@@H]5O[C@H](CO)[C@H](O)[C@H](O)[C@H]5O)C(C)(C)C4CC[C@]21C)O[C@H]3O (stereo partly drawn) | -0.812 | -3.33% | 6.53 | -11.6% | 5.92% |
| O=c1[nH]c2ccc(S(=O)(=O)Nc3ccc(N4CCOCC4)cc3)cc2[nH]1 | 10.5 | 0% | 11.4 | 0.577% | -4.88% |
| CC(C)Cn1c(=O)c2ccccc2n2c(SCC(=O)Nc3cccc(Cl)c3)nnc12 | -3.48 | 2.52% | 7.56 | -8.15% | 1.47% |
| COc1cccc(CN2C(=O)c3nc4ccccc4n3CC2(C)C(=O)NC2CCCC2)c1OC (stereo not drawn) | -0.619 | 2.87% | -1.4 | -0.095% | -4.8% |
| Cc1ccc(C)c(C(=O)Cn2nc3n(CC(C)C)c(=O)c4ccc(C(=O)NC5CCCC5)cc4n3c2=O)c1 | 2.75 | 0% | 10 | 1.45% | 5.05% |
| Cc1ccc(Cn2c(=O)c3ccccc3n3c(=O)n(CC(=O)c4cc(C)ccc4C)nc23)cc1 | 2.77 | 5.7% | 4.34 | -4.26% | 0.729% |
| CSc1ccc(C(=O)N[C@@H]2CCCC[C@@H]2NC(=O)CNC(=O)c2cc(C(F)(F)F)ccc2NC(=O)NC(C)C)cc1 | -5.91 | -6.53% | 3.92 | -32.8% | -6.99% |
| Cc1ccc(-c2cn3c(n2)N(S(C)(=O)=O)CCC3)cc1 | -5.38 | -6.65% | -18.2 | -8.76% | -1.65% |
